For 83 variants, self-cleavage results are on record in the RNAGym collection of RNA variant scans (doi:10.1093/nar/gkz1192).

The source gives no read counts; variants with many changes may rest on few reads.

B1: CPEB3 Ribozyme (parent)
chain: UAACAGGGGGCCACAGCAGAAGCGUUCACGUCGCAGCCCCUGUCAGAUUCUGGUGAAUCUGCGAAUUCUGCUGUAUAUCUC

The variants in this data set derive from B1. The experiment in a line: self-cleavage, relative activity (ratio to wild type); higher = more cleavage; in vitro, sequencing. In outline: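 Barcoded CPEB3 ribozyme mutants, produced by rounds of error-prone PCR, self-cleaved while being transcribed with T7 RNA polymerase for 5 hours at 37°C and during a subsequent 15 min DNase I step before EDTA was added. Sequencing of template-switched cDNA on Illumina gave cleaved and total reads, and DNA sequencing assigned barcodes to variants. Each variant's relative activity is its cleaved/total read fraction divided by the unmutated ribozyme's fraction, averaged across three batches. A variant needed a minimum of 5 reads.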
On to A21G U25C U41C C68A, for which the self-cleavage was determined as 0.7.

As for G22A U26A U74A U78C, the self-cleavage was determined as 0.32. Consider C23A U41C U51A U72C, for which the self-cleavage worked out at 0.14. Take A21U U41C U43A A45C U60A A65G: the self-cleavage worked out at 0.06. With A21U G53A U72A C81U, the self-cleavage stood at 0.19. The value for C23G U25C A35G U41A U43A U51G U78C was 0.03; that for C23A G30A U43C was 0.13. On to A21G U41C U51C C62A, for which the self-cleavage came out at 0.15. Regarding A21G U60C U76G, the self-cleavage worked out at 0.32.

For the variant A21G U41A G53U U60A U67C U80C, the self-cleavage was found to be 0.11. Turning to A21G U26A A35G U41C A45G, the self-cleavage turned out to be 0.34. On to A21G U67C A77G, for which the self-cleavage was determined as 0.16. For the variant G22A C39U A57G U69A, the self-cleavage was determined as 0.1.

For the variant A21G U41C U49A U60C, the self-cleavage stood at 0.15. In the case of A21G U69C U72C, the self-cleavage was found to be 0.26. As to C23A U41C U74C, the self-cleavage came to 0.67. As to C23U A57G U69C, the self-cleavage was determined as 0.08. For G22U C32A A45U U60C U72A, the self-cleavage stood at 0.06.

Take C23G A28U U72A: the self-cleavage was found to be 0.1. Turning to A21G U54C U72G U78C, the self-cleavage worked out at 0.32.

Regarding A21U U48C A56G, the self-cleavage turned out to be 0.39. In the case of G22U U26C C40U U54C U69C U80A, the self-cleavage was 0.15. On to C23G C32G U41C, for which the self-cleavage was 0.09. A21G U48C G52A: the self-cleavage was 0.45. The value for C23A A47G C71A was 0.41; that for G22U U51A U78C was 0.33; that for A21G U26C A28C U58A G63A A64G U80A was 0.02.

In the case of A21G U25C A28U U76A U80C, the self-cleavage came to 0.11. As to C23U U26C A35G U72C, the self-cleavage stood at 0.18. The value for A21G C44A U67C was 0.19; that for A21U C29A A35G U51A U72C was 0.16; that for C23G U26A U60C U74A was 0.07.

Regarding A21G G24A C38U, the self-cleavage stood at 0.24. Take A21U U26C C29A C39U A47G A77U U80A: the self-cleavage was 0.07. Consider C23A A28G A35U C59A C62G U78G, for which the self-cleavage was 0.09. With C23U C29U U43A U58C, the self-cleavage is 0.06. In the case of G22A U43A U60A G73A, the self-cleavage is 0.26. For the variant A21U G22A G42A U43C A65U, the self-cleavage came out at 0.11.

As to A21G G55A U80C, the self-cleavage worked out at 0.47.

A21U U49C A64G: the self-cleavage amounted to 0.45. Take A21G G24A U41C U43C: the self-cleavage turned out to be 0.37. Consider C23G G55A A65U A75G, for which the self-cleavage came out at 0.04. For the variant C23U U26A U66C U72A U80C, the self-cleavage came out at 0.14. The value for A21G U74A U76C was 1.01.

In the case of A21G C39A C79U, the self-cleavage was 0.26. A21G U43A A45G A47G U51C: the self-cleavage was found to be 0.45. Regarding A21G U31A U41C A75U, the self-cleavage stood at 0.69. In the case of A21G U31C U41A U54C it was 0.13. In the case of C23G U41C U60C U72C it was 0.18; in that of A21G U67A U78C, 0.14; in that of A21G G22A U60A U76C, 0.13. A21G C37U U51A: the self-cleavage is 0.24.

With A21G U25C U67C U69A, the self-cleavage came to 0.12.

For the variant A21U U31C A45C U72C, the self-cleavage is 0.13. Regarding A21G U31C U51A A64U, the self-cleavage was 0.14. Consider A21G G63A U78C, for which the self-cleavage came to 0.4. As for A21G U26A A47C U54C C81A, the self-cleavage worked out at 0.15. Turning to A21G U31C U48C, the self-cleavage amounted to 0.12.

Regarding A21G U25C U41A U48A, the self-cleavage was found to be 0.24. Turning to C23U U25C A35U A57U, the self-cleavage was 0.08. Consider C23U U26C A57G, for which the self-cleavage was 0.15. Consider G22A U60A U69C U72A U78C, for which the self-cleavage was found to be 0.11.

In the case of C23A U49A U60A, the self-cleavage is 0.13.

As for A21U A28G U60C U78A, the self-cleavage stood at 0.19.

For C23A U25C U43C A57G A64U, the self-cleavage is 0.3. In the case of A21G G36C U41C G46U U54C U60G it was 0.04; in that of G22A A28G U41G U51A, 0.07. As for A21U U49C U54A U78C, the self-cleavage came to 0.1. With A21G U25C U43A U51G, the self-cleavage was 0.18. The value for C23G A47U U58A A65U was 0.08; that for C23U U31A U54A U58C A64G was 0.12. As to A21G U54C A64U, the self-cleavage is 0.11.

As for C23U A35U U51C A57G U69G U72C, the self-cleavage was 0.06. The value for C23U G46U U49C was 0.2.

On to A21U U26C A45G U49C, for which the self-cleavage came to 0.2. Turning to C23U U31C C40U U49C G61A G63A, the self-cleavage came to 0.07. Regarding A21G G24U U25A A57G U72A, the self-cleavage was 0.07. With A21G G42A C59A A65G, the self-cleavage was determined as 0.13. A21U U25C U60C U69A: the self-cleavage amounted to 0.07.

As to G22A G53C U54G, the self-cleavage came out at 0.31.

Consider A21G U48C U60G, for which the self-cleavage stood at 0.3. As to G22A U43G U54A U67A, the self-cleavage was found to be 0.08. With A21G U26C A64U U72G, the self-cleavage amounted to 0.07.
